Measurements reported in PubChem BioAssay AID1768 (National Center for Advancing Translational Sciences (NCATS), 2009).
About 620 (0.23%) of roughly 270,000 compounds were called active. This list was built around the results that the source calls inconclusive (neither active nor inactive); the mix of calls is not that of the screen. The call rests on the fitted dose curve; in most records, active means well fitted inhibition curve with a large enough effect in the polarisation, with a control signal flat (not every such curve was filed as active); inconclusive means small, poorly fitted or top-dose-only effect, or effect the other way, or a change in a side signal; inactive means no such curve, though single readings can be large or run the other way; the % refers to the polarisation. Potencies beside an inconclusive call are fits to weak or partial responses and may not hold up. “Side channel” marks fits to a control or component signal instead of the main read-out.
Potency means the concentration at half of the fitted maximal effect; tags describe the fitted curve by direction and shape or compound fluorescence and quenching.
Wherever FP activity change, negative = inhibition is given: % of control where 0% means no effect.

These compounds were tested against Menin (Homo sapiens) (UniProt O00255) (assay: qHTS Assay for Inhibitors Targeting the Menin-MLL Interaction in MLL Related Leukemias: Competition With Texas Red Labeled MLL-derived Mutant Peptide). Details: fluorescence polarization; FP activity change, negative = inhibition: at 61.6 µM (top of the series).
Sequence of UniProt O00255 (O00255 whole entry, looked up): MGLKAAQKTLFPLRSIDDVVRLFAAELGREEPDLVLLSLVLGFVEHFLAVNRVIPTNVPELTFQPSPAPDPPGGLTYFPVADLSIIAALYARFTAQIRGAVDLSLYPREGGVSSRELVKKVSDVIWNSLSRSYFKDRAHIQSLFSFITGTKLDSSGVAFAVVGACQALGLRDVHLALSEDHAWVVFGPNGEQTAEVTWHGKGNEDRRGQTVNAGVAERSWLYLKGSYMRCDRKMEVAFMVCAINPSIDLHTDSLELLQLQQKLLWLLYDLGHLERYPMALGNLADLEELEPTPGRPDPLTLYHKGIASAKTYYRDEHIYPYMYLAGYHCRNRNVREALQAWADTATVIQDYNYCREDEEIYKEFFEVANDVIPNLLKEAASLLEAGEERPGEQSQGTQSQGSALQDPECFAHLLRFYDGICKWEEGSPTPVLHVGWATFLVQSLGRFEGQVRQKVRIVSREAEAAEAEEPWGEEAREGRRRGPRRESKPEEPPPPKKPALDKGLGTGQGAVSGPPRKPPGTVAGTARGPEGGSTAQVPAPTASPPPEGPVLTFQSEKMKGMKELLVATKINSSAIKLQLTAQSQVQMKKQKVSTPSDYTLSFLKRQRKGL
For Clc1ccc(-c2ncc3ccccn23)c(Cl)c1, the Potency was inconclusive: 11.2 µM [quencher, side channel, partial curve].
In the case of C=CCOc1ccc(Br)cc1CNC(C)(C)C, the Potency is reported as inconclusive: 12.6 µM [inhibitor, partial curve].
In the case of CC(=Nc1ccc(C)cc1C)c1sc2ccccc2c1O, the Potency is reported as inconclusive: 1.58 µM [fluorescent, side channel, full curve].
With CCc1ccc(NC(=S)N(Cc2cccc(Br)c2)CC2CCC(C(=O)O)CC2)cc1 (stereo not drawn) the Potency was inconclusive: 15.8 µM [quencher, side channel, partial curve].
For COc1ccc(OC)c(NC2c3ncccc3C(=O)N2Cc2ccco2)c1 (stereo not drawn), the “FP activity change, negative = inhibition” value was inactive: 0.73%.
COC(=O)c1ccc(/C=C/c2c(-c3ccc(OC)cc3)oc3ccc(N4CCOCC4)cc23)cc1 was tested, and the Potency was inconclusive: 8.91 µM [quencher, side channel, partial curve].
COc1ccc(NC(=O)c2ccc3ncsc3c2)cc1 was tested, and the “FP activity change, negative = inhibition” value was inactive: 30.6%.
For COc1ccccc1NC(=O)Nc1ccnn1C1CCCCC1, the “FP activity change, negative = inhibition” value was inactive: -2.85%.
In the case of Cc1cc(C)c(NC(=O)CSc2nnnn2-c2cccnc2)c(C)c1, the “FP activity change, negative = inhibition” value is reported as inactive: -7.09%.
O=C1OCc2nc3cc4c(cc3c(-c3ccc(F)cc3)c21)OCO4 was tested, and the Potency was inconclusive: 39.8 µM [inhibitor, single point].
In the case of COc1cccc(NC(=S)N2CCN(c3ccc([N+](=O)[O-])cc3)CC2)c1, the Potency is reported as inconclusive: 10 µM [quencher, side channel, partial curve].
For COc1ccc(C2CCCN2C(=S)Nc2cccc(Cl)c2)cc1OC (stereo not drawn), the Potency was inconclusive: 31.6 µM [quencher, side channel, single point].
Cc1nnc(SCC(=O)c2c(N)n(C)c(=O)n(C)c2=O)[nH]c1=O was tested, and the “FP activity change, negative = inhibition” value was inactive: -3.02%.
For COc1ccccc1N1CCN(C/C(O)=C(\C#N)c2nc(-c3ccccc3)cs2)CC1, the Potency was inconclusive: 28.2 µM [quencher, side channel, partial curve].
With Cc1cc2c(cc(C(=O)N3CCC(C(=O)N4CCCC4)CC3)n2Cc2c(F)cccc2Cl)o1 the Potency was inconclusive: 28.2 µM [fluorescent, side channel, single point].
With O=C(Nc1nnc(Cc2c[nH]c3ccccc23)s1)c1ccc(Cl)cc1Cl the Potency was inconclusive: 31.6 µM [quencher, side channel, partial curve].
In the case of CCC(=O)Oc1ccc(C(=O)Nc2ccc3c(c2)C(=O)N(C2CCCCC2)C3=O)cc1, the Potency is reported as inconclusive: 11.2 µM [quencher, side channel, partial curve].
For COc1cccc(CNc2ccc(F)c(Cl)c2)c1, the Potency was inconclusive: 22.4 µM [quencher, side channel, single point].
With O=C(Nc1ccc([N+](=O)[O-])cc1)Nc1ccc(Cl)cc1F the Potency was inconclusive: 11.2 µM [quencher, side channel, partial curve].
In the case of COc1ccccc1C(=O)Nc1nnc(S(=O)(=O)N2CCC(C)CC2)s1, the Potency is reported as inconclusive: 14.1 µM [quencher, partial curve].
With N#C/C(=N\Nc1ccc(S(=O)(=O)N2CCCCCC2)cc1)C(N)=S the Potency was inconclusive: 15.8 µM [quencher, side channel, partial curve].
With O=C(Nc1cccc2cccnc12)c1cccc(Cl)c1 the Potency was inconclusive: 10 µM [inhibitor, partial curve].
For Cc1ccc(S(=O)(=O)N2CCCCC2)cc1, the “FP activity change, negative = inhibition” value was inactive: -19%.
For O=C(CCCN1C(=O)/C(=C\c2cccs2)SC1=S)Nc1cc([N+](=O)[O-])ccc1O, the Potency was inconclusive: 28.2 µM [quencher, side channel, partial curve].
With CCOc1cc(/C=C(/C#N)C(=O)Nc2ccc(O)cc2)cc(Br)c1O the Potency was inconclusive: 14.1 µM [quencher, side channel, partial curve].
O=C(C1CCC1)N1CCc2cc(S(=O)(=O)NC3CCCc4ccccc43)ccc21 (stereo not drawn) was tested, and the Potency was inconclusive: 2.51 µM [fluorescent, side channel, full curve, poor fit].
With O=C(O)CSC(C(=O)Nc1ccc(Br)cc1)c1ccc(Cl)cc1 (stereo not drawn) the Potency was inconclusive: 31.6 µM [quencher, side channel, single point].
With Cc1cccc(NC(=S)Nc2cccc(C)n2)n1 the Potency was inconclusive: 35.5 µM [fluorescent, side channel, single point].
In the case of CN(C1CCCCC1)S(=O)(=O)c1ccc(NC(=O)c2ccco2)cc1, the Potency is reported as inconclusive: 20 µM [quencher, side channel, single point].
With c1ccc(-c2ccccc2-c2nc(-c3cccnc3)no2)cc1 the “FP activity change, negative = inhibition” value was inactive: 13.8%.
With C=CCn1c(O)c(N=NC(=O)c2ccccc2NS(=O)(=O)c2cccs2)c2ccccc21 the Potency was inconclusive: 12.6 µM [quencher, side channel, partial curve].
CC(C)CCN1C(=O)c2ccc(C(=O)Nc3ccc(Br)cc3C(=O)O)cc2C1=O was tested, and the Potency was inconclusive: 14.1 µM [quencher, partial curve].
In the case of CCN(CC)S(=O)(=O)c1ccc2[nH]cc(C(=O)NCCC3=CCCCC3)c(=O)c2c1, the Potency is reported as inconclusive: 7.08 µM [quencher, side channel, partial curve].
C=CCSc1nnc(-c2ccccc2N=Cc2c(C)[nH]n(-c3ccccc3)c2=O)c(=O)[nH]1 was tested, and the Potency was inconclusive: 17.8 µM [quencher, side channel, partial curve].
In the case of COc1ccc(S(=O)(=O)NCCCC(=O)Nc2ccc(Sc3ccc(N)cc3)cc2)cc1, the Potency is reported as inconclusive: 28.2 µM [quencher, side channel, single point].
With CCOC(=O)c1cnc2c(-c3ccccc3)c(-c3ccccc3)nn2c1C the Potency was inconclusive: 35.5 µM [fluorescent, side channel, single point].
With COc1ccc(N(C)C(=O)CCC(=O)Nc2ccc3nc(N4CCOCC4)cc(C)c3c2)c(OC)c1 the Potency was inconclusive: 3.98 µM [inhibitor, single point].
In the case of Nc1ccc2nn(-c3cc([N+](=O)[O-])ccc3O)nc2c1, the Potency is reported as inconclusive: 31.6 µM [quencher, side channel, partial curve].
